Assay results taken from publication PMC4075450.
These are yes or no findings as the source states them, for the method shown. Some binding calls cover weakened binding; strength is not graded here. Sequences can lack the tags named with a protein.

Tests used:
[1] = biological target: T1, ARF6 (auxin response factor 6), yeast two-hybrid fusion (Arabidopsis thaliana) (UniProt Q9ZTX8); experiment: two-hybrid; yeast; clones grown on synthetic dropout medium without histidine (−HIS) plus 1 mM 3AT (1 or 5 mM 3AT for the ARF6 fragments); activation domain and DNA binding domain fusions
T1 sequence: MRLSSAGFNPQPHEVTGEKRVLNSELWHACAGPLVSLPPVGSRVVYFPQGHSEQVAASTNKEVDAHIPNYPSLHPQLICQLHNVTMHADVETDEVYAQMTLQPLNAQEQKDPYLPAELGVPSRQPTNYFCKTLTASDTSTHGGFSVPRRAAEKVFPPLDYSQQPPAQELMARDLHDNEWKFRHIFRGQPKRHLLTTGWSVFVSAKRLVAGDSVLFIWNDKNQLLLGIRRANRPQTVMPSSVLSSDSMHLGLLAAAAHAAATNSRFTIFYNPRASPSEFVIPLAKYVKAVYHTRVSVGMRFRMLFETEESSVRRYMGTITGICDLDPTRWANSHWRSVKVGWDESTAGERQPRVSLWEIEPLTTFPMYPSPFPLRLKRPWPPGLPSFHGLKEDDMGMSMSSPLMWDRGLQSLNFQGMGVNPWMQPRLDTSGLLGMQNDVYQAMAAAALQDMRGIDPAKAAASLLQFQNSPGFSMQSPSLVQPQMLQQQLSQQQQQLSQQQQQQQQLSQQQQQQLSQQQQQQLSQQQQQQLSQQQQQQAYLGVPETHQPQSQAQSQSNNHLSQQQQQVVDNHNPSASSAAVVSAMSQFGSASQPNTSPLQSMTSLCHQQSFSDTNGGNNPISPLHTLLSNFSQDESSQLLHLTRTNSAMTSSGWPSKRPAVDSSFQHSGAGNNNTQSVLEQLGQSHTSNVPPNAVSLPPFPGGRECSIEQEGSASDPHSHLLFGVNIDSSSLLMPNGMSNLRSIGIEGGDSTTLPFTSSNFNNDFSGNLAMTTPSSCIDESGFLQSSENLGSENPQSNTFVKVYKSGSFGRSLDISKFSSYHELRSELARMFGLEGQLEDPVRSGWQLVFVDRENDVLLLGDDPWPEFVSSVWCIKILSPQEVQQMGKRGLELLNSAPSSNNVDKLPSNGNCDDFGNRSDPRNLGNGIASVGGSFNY

[2] = biological target: T2, ARF8 (auxin response factor 8), yeast two-hybrid fusion (Arabidopsis thaliana) (UniProt Q9FGV1); experiment: as above
T2 sequence: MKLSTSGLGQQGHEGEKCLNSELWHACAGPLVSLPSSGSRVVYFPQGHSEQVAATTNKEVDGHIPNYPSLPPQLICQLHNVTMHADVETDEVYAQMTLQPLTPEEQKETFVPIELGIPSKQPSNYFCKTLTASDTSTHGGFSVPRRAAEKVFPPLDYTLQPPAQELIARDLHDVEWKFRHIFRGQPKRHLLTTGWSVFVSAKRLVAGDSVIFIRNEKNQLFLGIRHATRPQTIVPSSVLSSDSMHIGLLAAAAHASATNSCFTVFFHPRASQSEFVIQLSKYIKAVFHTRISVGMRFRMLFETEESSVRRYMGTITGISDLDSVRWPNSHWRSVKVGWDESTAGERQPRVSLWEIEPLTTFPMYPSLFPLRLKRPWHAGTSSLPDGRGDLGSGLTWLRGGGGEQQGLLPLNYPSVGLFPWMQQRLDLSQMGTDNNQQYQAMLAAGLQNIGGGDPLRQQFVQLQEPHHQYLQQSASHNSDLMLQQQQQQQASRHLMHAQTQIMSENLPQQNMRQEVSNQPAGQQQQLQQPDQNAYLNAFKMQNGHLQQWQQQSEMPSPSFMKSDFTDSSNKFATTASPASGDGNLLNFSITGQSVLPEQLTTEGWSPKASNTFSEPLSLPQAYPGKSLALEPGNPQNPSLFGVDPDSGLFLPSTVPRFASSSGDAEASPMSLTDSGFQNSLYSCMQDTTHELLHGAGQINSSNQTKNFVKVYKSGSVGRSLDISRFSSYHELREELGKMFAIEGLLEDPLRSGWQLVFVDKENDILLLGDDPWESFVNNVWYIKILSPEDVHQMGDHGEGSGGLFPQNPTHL

B1: BEE2, yeast two-hybrid fusion (protein, UniProt Q93VJ4 1-304)
chain: MDLSVLDRLKWLQQQQMVSPEFLQILGSDGREELKRVESYLGNNNDELQSFRHFPEFGPDYDTTDGCISRTSSFHMEPVKNNGHSRAITLQNKRKPEGKTEKREKKKIKAEDETEPSMKGKSNMSNTETSSEIQKPDYIHVRARRGEATDRHSLAERARREKISKKMKCLQDIVPGCNKVTGKAGMLDEIINYVQSLQQQVEFLSMKLSVINPELECHIDDLSAKQFQAYFTGPPEGDSKQSIMADFRSFPLHQQGSLDYSVINSDHTTSLGAKDHTSSSWETHSQCLYNSLRTDSVSNFFSLK
Q: B1 was tested. Which binding [1] did it give?
A: binds

B2: HBI1, yeast two-hybrid fusion (protein, UniProt Q9ZPW3 1-337)
chain: MLEGLVSQESLSLNSMDMSVLERLKWVQQQQQQLQQVVSHSSNNSPELLQILQFHGSNNDELLESSFSQFQMLGSGFGPNYNMGFGPPHESISRTSSCHMEPVDTMEVLLKTGEETRAVALKNKRKPEVKTREEQKTEKKIKVEAETESSMKGKSNMGNTEASSDTSKETSKGASENQKLDYIHVRARRGQATDRHSLAERARREKISKKMKYLQDIVPGCNKVTGKAGMLDEIINYVQCLQRQVEFLSMKLAVLNPELELAVEDVSVKQFQAYFTNVVASKQSIMVDVPLFPLDQQGSLDLSAINPNQTTSIEAPSGSWETQSQSLYNTSSLGFHY
Q: With B2 as the binder, how does the binding [1] read?
A: binds

Q: Which binding [1] does the source give for RAAEVHNLSERRRRDRINERMKALQELIPHCSKTDKASILDEAIDYLKSL (domain or fragment, UniProt Q8W2F3 257-306) [bHLH domain of PIF4, yeast two-hybrid fusion] here?
A: binds

B3: IAA3, yeast two-hybrid fusion (protein, UniProt Q38822 1-189)
chain: MDEFVNLKETELRLGLPGTDNVCEAKERVSCCNNNNKRVLSTDTEKEIESSSRKTETSPPRKAQIVGWPPVRSYRKNNIQSKKNESEHEGQGIYVKVSMDGAPYLRKIDLSCYKGYSELLKALEVMFKFSVGEYFERDGYKGSDFVPTYEDKDGDWMLIGDVPWEMFICTCKRLRIMKGSEAKGLGCGV
Q: B3 was tested. Which binding [1] did it give?
A: binds

Q: And the binding [2]?
A: binds
